The source of these data is the supplement of paper PMC12582362.

Where a name gives a salt, the structure may show the parent alone. In all, about 1,500 compounds went through this assay and about 30 (2%) showed activity.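 Rule for the calls: active = robust z-score below -2; a few such results were not called.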 Some of the results follow.

In the experiment the test system is optoTopBP1 Flp-In 293 T-REx (HEK293) cells. The experiment can be described thus: light-induced TopBP1 condensate (nuclear foci) count, plate-normalised robust z-score vs non-control wells; higher = more TopBP1 condensates (negative = condensation inhibitor), active = hit call of the paper. The conditions noted are these: 10 µM; incubation time 2 h.
`CCc1oc2ccccc2c1C(=O)c1ccc(O)cc1` [Benzarone]: the “light-induced TopBP1 condensate (z-score)” value was inactive: 1.57. On to `COc1cc(N)c(Cl)cc1C(=O)NC1CCN(Cc2ccccc2)CC1` [Clebopride maleate], for which the “light-induced TopBP1 condensate (z-score)” value is inactive: -0.227. As to `CCN1CCCC1CNC(=O)c1cc(S(=O)(=O)CC)c(N)cc1OC` (centres undefined) [Amisulpride], the “light-induced TopBP1 condensate (z-score)” value is inactive: -0.28. For `Nc1nc(N)nc(-c2cc(Cl)ccc2Cl)n1` [Irsogladine maleate] the value was inactive: 0.8; for `COc1c(O)cc2c(c1O)[C@@H]1O[C@H](CO)[C@@H](O)[C@H](O)[C@H]1OC2=O` [Bergenin], inactive: -0.755. Turning to `CC(C)[C@H]1CC[C@H](C(=O)N[C@H](Cc2ccccc2)C(=O)O)CC1` [Nateglinide], the “light-induced TopBP1 condensate (z-score)” value was inactive: -0.706.

In the case of `COc1ccccc1OCCNCC(O)COc1cccc2[nH]c3ccccc3c12` (centres undefined) [Carvedilol], the “light-induced TopBP1 condensate (z-score)” value was inactive: -0.978.

Regarding `CC(C)c1nc(CN(C)C(=O)N[C@H](C(=O)N[C@@H](Cc2ccccc2)C[C@H](O)[C@H](Cc2ccccc2)NC(=O)OCc2cncs2)C(C)C)cs1` [Ritonavir], the “light-induced TopBP1 condensate (z-score)” value is inactive: -1.47.

With `CC1CCc2cc(F)cc3c(=O)c(C(=O)O)cn1c23` (centres undefined) [Flumequine], the “light-induced TopBP1 condensate (z-score)” value is inactive: 0.294. On to `CCCCOc1ccc(OCCCN2CCOCC2)cc1` [Pramoxine hydrochloride], for which the “light-induced TopBP1 condensate (z-score)” value was inactive: -0.268. In the case of `COC(=O)Nc1nc2cc(C(=O)c3ccc(F)cc3)ccc2[nH]1` [Flubendazol], the “light-induced TopBP1 condensate (z-score)” value is active: -2.01. For `CC(C)(C)NC(=O)[C@@H]1CN(Cc2cccnc2)CCN1C[C@@H](O)C[C@@H](Cc1ccccc1)C(=O)N[C@H]1c2ccccc2C[C@H]1O` [Indinavir sulfate] the value was inactive: -0.338; for `O=C(O[C@@H]1C[C@@H]2C[C@H]3C[C@H](C1)N2CC3=O)c1c[nH]c2ccccc12` [Dolasetron mesilate], inactive: -0.474; for `COc1ccc2cc1Oc1ccc(cc1)C[C@H]1c3c(cc4c(c3Oc3cc5c(cc3OC)CCN(C)[C@@H]5C2)OCO4)CCN1C` [Cepharanthine], inactive: 0.371.

For the compound `Cc1c(OCC(F)(F)F)ccnc1C[S+]([O-])c1nc2ccccc2[nH]1` (centres undefined) [Lansoprazole], the “light-induced TopBP1 condensate (z-score)” value was inactive: 0.561. As for `Cn1c(=O)c2c(ncn2C)n(C)c1=O` [Caffeine], the “light-induced TopBP1 condensate (z-score)” value was inactive: 0.602. On to `CN[C@@H]1CCc2[nH]c3ccc(C(N)=O)cc3c2C1` [Frovatriptan succinate], for which the “light-induced TopBP1 condensate (z-score)” value was inactive: -0.247. For `CCCC(CCC)C(=O)O` [Valproic acid] the value was inactive: 0.428. Consider `CN(C)CCCC1(c2ccc(F)cc2)OCc2cc(C#N)ccc21` (centres undefined) [Citalopram Hydrobromide], for which the “light-induced TopBP1 condensate (z-score)” value was inactive: 0.761. In the case of `O=C(O)CNC(=O)C(CS)Cc1ccccc1` (centres undefined) [Thiorphan], the “light-induced TopBP1 condensate (z-score)” value was inactive: -0.677. On to `Cc1onc(-c2ccccc2)c1C(=O)N[C@@H]1C(=O)N2[C@@H]1SC(C)(C)[C@@H]2C(=O)O` [Oxacillin sodium], for which the “light-induced TopBP1 condensate (z-score)” value was inactive: 0.606. Consider `COc1cc(N)c(Cl)cc1C(=O)NC1CCN(CCCOc2ccc(F)cc2)CC1OC` (centres undefined) [Cisapride], for which the “light-induced TopBP1 condensate (z-score)” value was inactive: 0.452.

With `CN(C)CCC(c1ccc(Cl)cc1)c1ccccn1` (centres undefined) [Chlorpheniramine maleate], the “light-induced TopBP1 condensate (z-score)” value is inactive: 1.09. Regarding `COC1=CC(=O)C[C@@H](C)[C@]12Oc1c(Cl)c(OC)cc(OC)c1C2=O` [Griseofulvin], the “light-induced TopBP1 condensate (z-score)” value was inactive: -0.0214. As to `NCCc1cc[nH]n1` [Betazole hydrochloride], the “light-induced TopBP1 condensate (z-score)” value is inactive: 0.0766.

Take `CCCNC(C)C(=O)Nc1c(C)csc1C(=O)OC` (centres undefined) [Articaine hydrochloride]: the “light-induced TopBP1 condensate (z-score)” value was inactive: 1.26. With `COc1cccc(N(C)C(=S)Oc2ccc3c(c2)CCCC3)n1` [Liranaftate], the “light-induced TopBP1 condensate (z-score)” value is inactive: 0.351. Regarding `Cc1c(NC(C)C)c(=O)n(-c2ccccc2)n1C` [Isopyrin hydrochloride], the “light-induced TopBP1 condensate (z-score)” value is inactive: 0.627. Regarding `CC(C[N+](C)(C)C)OC(N)=O` (centres undefined) [Bethanechol chloride], the “light-induced TopBP1 condensate (z-score)” value was inactive: -0.101. For `COc1ccc2c(c1)C(=O)N(CCc1ccc(S(=O)(=O)NC(=O)NC3CCCCC3)cc1)C(=O)C2(C)C` [Gliquidone], the “light-induced TopBP1 condensate (z-score)” value is inactive: -0.0398.

`CN(C)CCN(Cc1ccc(Cl)cc1)c1ccccn1` [Chloropyramine hydrochloride]: the “light-induced TopBP1 condensate (z-score)” value was inactive: -0.941. For the compound `NS(=O)(=O)Cc1noc2ccccc12` [Zonisamide], the “light-induced TopBP1 condensate (z-score)” value is inactive: 0.198. As to `Cc1cn([C@H]2C[C@H](N=[N+]=[N-])[C@@H](CO)O2)c(=O)[nH]c1=O` [Zidovudine, AZT], the “light-induced TopBP1 condensate (z-score)” value was inactive: 0.554.

In the case of `COc1ccc([C@@H]2Sc3ccccc3N(CCN(C)C)C(=O)[C@@H]2OC(C)=O)cc1` [Diltiazem hydrochloride], the “light-induced TopBP1 condensate (z-score)” value was inactive: 0.563. For `Cc1ccc(C)c(OCCCC(C)(C)C(=O)O)c1` [Gemfibrozil] the value was inactive: 0.575; for `O=C(O)C[C@H](O)C[C@H](O)/C=C/c1c(C2CC2)nc2ccccc2c1-c1ccc(F)cc1` [Pitavastatin calcium], inactive: 0.947.

For `CNCCC=C1c2ccccc2C=Cc2ccccc21` [Norcyclobenzaprine], the “light-induced TopBP1 condensate (z-score)” value is inactive: -0.386. On to `CC1(C)S[C@@H]2[C@H](NC(=O)[C@H](N)c3ccccc3)C(=O)N2[C@H]1C(=O)OC1OC(=O)c2ccccc21` (some centres undefined) [Talampicillin hydrochloride], for which the “light-induced TopBP1 condensate (z-score)” value was inactive: -0.173. For the compound `NC(=O)OCC(O)COc1ccc(Cl)cc1` (centres undefined) [Chlorphensin carbamate], the “light-induced TopBP1 condensate (z-score)” value was inactive: -0.00104.

Regarding `COC(=O)CCc1ccc(OCC(O)CNC(C)C)cc1` (centres undefined) [Esmolol hydrochloride], the “light-induced TopBP1 condensate (z-score)” value was inactive: -0.544. Turning to `CN1C(C(=O)Nc2ccccn2)=C(O)c2ccccc2S1(=O)=O` [Piroxicam], the “light-induced TopBP1 condensate (z-score)” value was inactive: 0.766. For `COCCOC(=O)C1=C(C)NC(C)=C(C(=O)OC(C)C)C1c1cccc([N+](=O)[O-])c1` (centres undefined) [Nimodipine] the value was inactive: -0.998; for `C[C@]12CCC(=O)C=C1C=C[C@@H]1[C@@H]2CC[C@@]2(C)[C@H]1CC[C@@]21CCC(=O)O1` [Canrenone], inactive: 0.252. As for `CC(C)NC(=N)NC(=N)Nc1ccc(Cl)cc1` [Proguanil hydrochloride], the “light-induced TopBP1 condensate (z-score)” value is inactive: -0.256.
